Results from patent publication US11773160 (ANAVEON, dated 2023).

What was measured:
[1] = target: T1, monoclonal anti-human IL-2 antibody 5344 (BD, 555051); assay: sandwich ELISA, 5344 coated, fusion protein titrated, anti-human IgG-Peroxidase
T1 construct: Coated capture antibody
Experimental: The antibody-IL-2 fusion proteins were tested on a sandwich ELISA, to assess the correct folding of the IL-2 portion. […] The obtained signals (Absorbance 450-570 nm) were plotted as function of antibody-IL-2 fusion protein concentration (as log value). The $EC50$ values were interpolated fitting the data with GraphPad Prism 8 (Table 6).

[2] = target: monoclonal anti-human IL-2 antibody Nara1; assay: ELISA, Nara1 coated, fusion protein titrated, anti-human IgG-Peroxidase; lowest concentration with signal at or above the cut point
[3] = target: T2, His-tagged recombinant CD25 (human, UniProt P01589 22-213, limits assumed); assay: SPR (BIAcore 3000), His-tagged CD25 captured via TrisNTA Biotin on SA chip, kinetic titration of fusion protein
T2 construct: Captured via TrisNTA Biotin on SA chips; also called IL-2 receptor alpha; IL-2Rα; not shown: His tag
T2 sequence (looked up): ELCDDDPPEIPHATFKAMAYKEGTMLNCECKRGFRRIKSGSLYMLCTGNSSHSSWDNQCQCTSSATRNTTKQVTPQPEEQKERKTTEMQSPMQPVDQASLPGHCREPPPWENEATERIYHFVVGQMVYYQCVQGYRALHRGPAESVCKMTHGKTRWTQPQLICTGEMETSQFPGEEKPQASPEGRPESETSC
Experimental: HEK-Blue™ IL-2 reporter cells (Invivogen) were incubated with a dilution series (1:3 dilutions from 0.56 nM) of antibody-IL-2 fusion protein in growth medium for 20 hours Example 4. IL-2 fusion protein in vitro selectivity Binding affinities to CD25 measured by SPR Binding affinities of the IL-2 fusion protein to the IL-2 receptor CD25 were measured by SPR (BIAcore 3000, GE Healthcare, 33-1140587-3682). His-tagged recombinant CD25 was captured via TrisNTA Biotin on SA chips and Kinetic titration of IL-2 fusion proteins of the present invention was performed reaching concentrations up to 500 nM.

[4] = target: T3, IL-2R on murine splenocytes (C57BL/6); assay: cell-based or functional assay
T3 sequence (P01590 whole entry, looked up): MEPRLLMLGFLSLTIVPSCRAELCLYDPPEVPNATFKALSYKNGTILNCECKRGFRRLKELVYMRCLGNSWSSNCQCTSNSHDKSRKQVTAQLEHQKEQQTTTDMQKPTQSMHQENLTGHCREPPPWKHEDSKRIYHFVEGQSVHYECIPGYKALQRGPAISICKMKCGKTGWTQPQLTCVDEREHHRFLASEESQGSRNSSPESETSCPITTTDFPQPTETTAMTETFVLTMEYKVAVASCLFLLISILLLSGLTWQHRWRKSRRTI
T3 sequence (P16297 whole entry, looked up): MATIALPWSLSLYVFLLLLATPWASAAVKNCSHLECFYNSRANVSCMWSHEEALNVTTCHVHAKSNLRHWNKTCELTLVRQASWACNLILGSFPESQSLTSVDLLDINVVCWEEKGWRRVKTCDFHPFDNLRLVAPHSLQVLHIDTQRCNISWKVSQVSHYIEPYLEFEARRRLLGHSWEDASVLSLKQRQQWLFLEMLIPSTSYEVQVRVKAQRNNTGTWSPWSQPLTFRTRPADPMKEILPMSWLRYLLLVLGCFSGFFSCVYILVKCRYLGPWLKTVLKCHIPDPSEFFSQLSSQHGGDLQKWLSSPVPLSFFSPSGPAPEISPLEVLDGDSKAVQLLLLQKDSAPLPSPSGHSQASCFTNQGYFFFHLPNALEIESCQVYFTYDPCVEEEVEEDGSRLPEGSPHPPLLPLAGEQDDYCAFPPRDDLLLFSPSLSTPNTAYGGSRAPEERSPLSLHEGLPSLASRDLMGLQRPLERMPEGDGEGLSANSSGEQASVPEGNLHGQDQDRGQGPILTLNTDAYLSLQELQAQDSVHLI
T3 sequence (P34902 whole entry, looked up): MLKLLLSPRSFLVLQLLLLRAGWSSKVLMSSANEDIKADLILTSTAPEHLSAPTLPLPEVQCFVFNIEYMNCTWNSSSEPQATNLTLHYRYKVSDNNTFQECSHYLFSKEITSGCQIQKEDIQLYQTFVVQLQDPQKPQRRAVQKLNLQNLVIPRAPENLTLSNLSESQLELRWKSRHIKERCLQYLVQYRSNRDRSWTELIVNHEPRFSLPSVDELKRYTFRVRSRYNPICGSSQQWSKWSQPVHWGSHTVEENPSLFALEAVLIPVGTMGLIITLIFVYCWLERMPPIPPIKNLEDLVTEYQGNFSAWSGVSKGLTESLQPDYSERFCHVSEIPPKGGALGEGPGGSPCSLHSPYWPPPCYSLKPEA

[5] = target: T4, trimeric IL-2 receptor on HEK-Blue IL-2 reporter cells (UniProt P01589 22-272; P14784 27-551; P31785 23-369, limits assumed); assay: cell-based or functional assay
T4 sequence (looked up) 1: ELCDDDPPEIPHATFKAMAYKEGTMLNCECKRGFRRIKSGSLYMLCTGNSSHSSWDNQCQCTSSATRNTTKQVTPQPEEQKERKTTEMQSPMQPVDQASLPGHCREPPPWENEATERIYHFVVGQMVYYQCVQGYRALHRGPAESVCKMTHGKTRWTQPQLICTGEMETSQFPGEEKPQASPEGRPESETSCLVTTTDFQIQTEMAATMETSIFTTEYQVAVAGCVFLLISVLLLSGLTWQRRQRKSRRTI
T4 sequence (looked up) 2: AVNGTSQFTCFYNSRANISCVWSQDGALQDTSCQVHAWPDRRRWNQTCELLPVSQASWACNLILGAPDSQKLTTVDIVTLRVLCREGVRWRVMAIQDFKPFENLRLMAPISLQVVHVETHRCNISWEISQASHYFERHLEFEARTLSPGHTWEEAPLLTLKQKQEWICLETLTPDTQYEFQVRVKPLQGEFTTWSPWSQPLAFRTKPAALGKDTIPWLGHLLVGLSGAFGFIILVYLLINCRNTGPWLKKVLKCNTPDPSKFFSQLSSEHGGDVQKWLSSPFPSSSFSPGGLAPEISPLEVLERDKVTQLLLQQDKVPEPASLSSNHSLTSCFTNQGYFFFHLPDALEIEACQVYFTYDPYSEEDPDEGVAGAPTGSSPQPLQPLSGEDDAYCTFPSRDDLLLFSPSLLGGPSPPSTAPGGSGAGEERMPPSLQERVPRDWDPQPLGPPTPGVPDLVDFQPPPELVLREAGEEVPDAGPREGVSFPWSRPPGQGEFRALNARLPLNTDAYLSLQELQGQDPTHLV
T4 sequence (looked up) 3: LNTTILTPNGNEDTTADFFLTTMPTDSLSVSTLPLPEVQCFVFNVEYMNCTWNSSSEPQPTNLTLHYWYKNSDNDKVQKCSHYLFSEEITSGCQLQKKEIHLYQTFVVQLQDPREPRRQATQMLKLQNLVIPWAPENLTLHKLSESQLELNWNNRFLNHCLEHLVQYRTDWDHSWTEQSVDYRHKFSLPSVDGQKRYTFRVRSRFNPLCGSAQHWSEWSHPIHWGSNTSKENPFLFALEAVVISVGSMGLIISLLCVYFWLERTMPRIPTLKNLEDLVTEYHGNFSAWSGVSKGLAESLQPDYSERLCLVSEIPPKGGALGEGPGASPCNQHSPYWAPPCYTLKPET

B1: LPT269 (other)
heavy: EVQLVQSGAEVKKPGESLKISCKGSGYSFTNFYIHWVRQAPGQRLEWMGSIYPNYGDTAYNQKFKDRFVFSLDTSVSTAYLQISSLKAEDTAVYYCARGYSYAMDYWGQGTTVTVSS[omitted - human IgG1 constant region]
light: DIQMTQSPSSVSASVGDRVTITCSASQGISGNFHLRPRDLISNINVIVLELKGSETTFMCEYADETATIVEFLNRWITFSQSIISTLTPTSSSTKKTQLQLEHLLLDLQMILNGINNYKNPKLTRMLTFKFYMPKKATELKHLQCLEEELKPLEEVLNLAQSKGDLNWYQQKPGKAPKLLIYHTSSLHSGVPSRFSGSGSGTDFTLTISSLQPEDFATYYCQYYSKDLLTFGGGTKLEIKRTVAAPSVFIFPPSDEQLKSGTASVVCLLNNFYPREAKVQWKVDNALQSGNSQESVTEQDSKDSTYSLSSTLTLSKADYEKHKVYACEVTHQGLSSPVTKSFNRGEC
notes: also called IL-2 fusion protein to antibody C, linker 1 0 AA, linker 2 1 AA
[1]
  EC50: 0.24 nM
[2]
  Lowest concentration (nM) OD450-570 ≥ CP: < 0.09 nM
[3]
  Kd: 0.12 nM
[4]
  EC50 CD8 cells (nM), pSTAT5 MFI: 32 nM
  EC50 NK cells (nM), pSTAT5 MFI: 1.7 nM
  EC50 Treg cells (nM), pSTAT5 MFI: < 0.016 nM
[5]
  EC50 (M), SEAP of HEK-Blue IL-2 reporter cells: 7.35e-12 M

B2: DXM339 (other)
heavy: EVQLVQSGAEVKKPGESLKISCKGSGYSFTNFYIHWVRQAPGQRLEWMGSIYPNYGDTAYNQKFKDRFVFSLDTSVSTAYLQISSLKAEDTAVYYCARGYSYAMDYWGQGTTVTVSS[omitted - human IgG1 constant region]
light: DIQMTQSPSSVSASVGDRVTITCSASQGISGGGNFHLRPRDLISNINVIVLELKGSETTFMCEYADETATIVEFLNRWITFSQSIISTLTPTSSSTKKTQLQLEHLLLDLQMILNGINNYKNPKLTRMLTFKFYMPKKATELKHLQCLEEELKPLEEVLNLAQSKGGGDLNWYQQKPGKAPKLLIYHTSSLHSGVPSRFSGSGSGTDFTLTISSLQPEDFATYYCQYYSKDLLTFGGGTKLEIKRTVAAPSVFIFPPSDEQLKSGTASVVCLLNNFYPREAKVQWKVDNALQSGNSQESVTEQDSKDSTYSLSSTLTLSKADYEKHKVYACEVTHQGLSSPVTKSFNRGEC
notes: Antibody-IL-2 fusion on Antibody C; also called IL-2 fusion protein to antibody C, linker 1 2 AA, linker 2 3 AA
[1]
  EC50: 0.28 nM
[2]
  Lowest concentration (nM) OD450-570 ≥ CP: < 0.09 nM
[3]
  Kd: 0.18 nM
[4]
  EC50 CD8 cells (nM), pSTAT5 MFI: 18.6 nM
  EC50 NK cells (nM), pSTAT5 MFI: 1.3 nM
  EC50 Treg cells (nM), pSTAT5 MFI: < 0.016 nM
[5]
  EC50 (M), SEAP of HEK-Blue IL-2 reporter cells: 5.47e-12 M

B3: FUE443 (other)
heavy: EVQLVQSGAEVKKPGESLKISCKGSGYSFTNFYIHWVRQAPGQRLEWMGSIYPNYGDTAYNQKFKDRFVFSLDTSVSTAYLQISSLKAEDTAVYYCARGYSYAMDYWGQGTTVTVSS[omitted - human IgG1 constant region]
light: DIQMTQSPSSVSASVGDRVTITCSASQGISGGGGNFHLRPRDLISNINVIVLELKGSETTFMCEYADETATIVEFLNRWITFSQSIISTLTPTSSSTKKTQLQLEHLLLDLQMILNGINNYKNPKLTRMLTFKFYMPKKATELKHLQCLEEELKPLEEVLNLAQSKGGGGDLNWYQQKPGKAPKLLIYHTSSLHSGVPSRFSGSGSGTDFTLTISSLQPEDFATYYCQYYSKDLLTFGGGTKLEIKRTVAAPSVFIFPPSDEQLKSGTASVVCLLNNFYPREAKVQWKVDNALQSGNSQESVTEQDSKDSTYSLSSTLTLSKADYEKHKVYACEVTHQGLSSPVTKSFNRGEC
notes: Antibody-IL-2 fusion on Antibody C; also called FUE433; FEU443
[1]
  EC50: 0.54 nM
[2]
  Lowest concentration (nM) OD450-570 ≥ CP: < 0.09 nM
[3]
  Kd: 0.16 nM
[4]
  EC50 CD8 cells (nM), pSTAT5 MFI: 15.7 nM
  EC50 NK cells (nM), pSTAT5 MFI: 1.2 nM
  EC50 Treg cells (nM), pSTAT5 MFI: < 0.016 nM
[5]
  EC50 (M), SEAP of HEK-Blue IL-2 reporter cells: 4.84e-12 M

B4: LQM346 (other)
heavy: EVQLVQSGAEVKKPGESLKISCKGSGYSFTNFYIHWVRQAPGQRLEWMGSIYPNYGDTAYNQKFKDRFVFSLDTSVSTAYLQISSLKAEDTAVYYCARGYSYAMDYWGQGTTVTVSS[omitted - human IgG1 constant region]
light: DIQMTQSPSSVSASVGDRVTITCSASQGISGGGGGSGNFHLRPRDLISNINVIVLELKGSETTFMCEYADETATIVEFLNRWITFSQSIISTLTPTSSSTKKTQLQLEHLLLDLQMILNGINNYKNPKLTRMLTFKFYMPKKATELKHLQCLEEELKPLEEVLNLAQSKGGGGSGGDLNWYQQKPGKAPKLLIYHTSSLHSGVPSRFSGSGSGTDFTLTISSLQPEDFATYYCQYYSKDLLTFGGGTKLEIKRTVAAPSVFIFPPSDEQLKSGTASVVCLLNNFYPREAKVQWKVDNALQSGNSQESVTEQDSKDSTYSLSSTLTLSKADYEKHKVYACEVTHQGLSSPVTKSFNRGEC
notes: Antibody-IL-2 fusion on Antibody C; also called IL-2 fusion protein to antibody C, linker 1 6 AA, linker 2 7 AA
[1]
  EC50: 0.28 nM
[2]
  Lowest concentration (nM) OD450-570 ≥ CP: < 0.09 nM
[3]
  Kd: 0.15 nM
[4]
  EC50 CD8 cells (nM), pSTAT5 MFI: 25.4 nM
  EC50 NK cells (nM), pSTAT5 MFI: 1.8 nM
  EC50 Treg cells (nM), pSTAT5 MFI: < 0.016 nM
[5]
  EC50 (M), SEAP of HEK-Blue IL-2 reporter cells: 4.92e-12 M
